In paper PMC12136788:
This is one part of the list.

T1: UNK ZnF1-3 (human, UniProt Q9C0B0 31-174)
T1 sequence: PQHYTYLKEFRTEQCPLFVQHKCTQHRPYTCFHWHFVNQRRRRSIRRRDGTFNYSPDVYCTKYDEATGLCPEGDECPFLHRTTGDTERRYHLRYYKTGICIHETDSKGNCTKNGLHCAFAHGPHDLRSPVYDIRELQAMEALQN

B1: chr3:148802587:148802588:-_ENSG00000071794_ENST00000310053|hu_mus|hu_hu_hu_mus_False|1_48 (ssRNA)
RNA: GGGAGUUCUACAGUCCGACGAUCUCCAACAACUUGUCCUCUCAUAGUUCCAAAUAAAACCAAAUCUUGCUCUUCAUCACUCGUUAGAAAGUCAUCUGGAGGAAUAAUGUCUUGGAAUUCAAAAUGUGGCAAGAAAGUUGGAUACAACAGAGGAUUGAGCAUCA
B2: chr7:91030085:91030086:-_ENSMUSG00000070462_ENSMUST00000094216|mus_mus|FALSE|FALSE (ssRNA)
RNA: GGGAGUUCUACAGUCCGACGAUCAAUACUCCAGUACAUGCAGGGUAAAAACUUGACAUUGGGGGGGGGGGGAAAUCACUCUAUAGUGUAAUUUAAAAAAUAAAACACACGCUCACAGUAGCUUUCCCCCCCACUUGCAAAUCACAACAGAGGAUUGAGCAUCA
B3: chrX:71549400:71549401:+_ENSMUSG00000019087_ENSMUST00000019231|mus_hu|FALSE|FALSE (ssRNA)
RNA: GGGAGUUCUACAGUCCGACGAUCGCAGUAGGAAGAGGGAAGCUCUUCAGUCCAGUGCGCUGCAGGGUGGGAAAGCAACAACACGGACACCGUCCCACCCUCAACCCCCCCACUGGCACAGGGUCACACAAUCUGGGUCAAAGACAACAGAGGAUUGAGCAUCA
B4: 17197765_17197885_133_5pUTR_ENSMUSG00000017485_ENSMUST00000017629|mouse|control|control (ssRNA)
RNA: GGGAGUUCUACAGUCCGACGAUCAUGAGCCGCUGCUUCUCCUCAAGCCACCGAAGCCGCAGAGUCCUCGCCGCGGUCGCCGCAGCCUCAAAGGCCGCCACUGCCUCAAAACCGCCCAAGCGGCGUCUGAACCGGUCCUCCGGACAACAGAGGAUUGAGCAUCA
B5: chr16:15155627:15155628:-_ENSG00000085721_ENST00000198767|hu_mus|FALSE|FALSE (ssRNA)
RNA: GGGAGUUCUACAGUCCGACGAUCUUGCGCAGCUCAAUCAUAGAUCCUUGUGAGGAGUGGAGACUGGCCUGGUAUAUACAGCACAGGAGGGGAGCCCACACUACUGGAAGGACUUUGGAAGUGGGUAUCAAAGGAGCUCGGAGUCAACAGAGGAUUGAGCAUCA
B6: 160217689_160217809_4014_3pUTR_ENSG00000186432_ENST00000334256|human|control|control (ssRNA)
RNA: GGGAGUUCUACAGUCCGACGAUCAGUUGUCUCGGUCUGUUUUACUGGAGAAUGAAGGAAAGUUAAAACCUUGCUUUGGAUAGAGAGAAAACUGAAGCACUGAUGGUGUCAACUGGACAAACUCAGUGGGCUAAAAUAUUAAUACAACAGAGGAUUGAGCAUCA
B7: chr14:62207507:62207508:+_ENSG00000100644_ENST00000337138|hu_hu|FALSE|FALSE (ssRNA)
RNA: GGGAGUUCUACAGUCCGACGAUCUGACAACUGAUCGAAGGAACGUAACUGGAAGUCAUCAUCCAUUGGGAUAUAGGGAGCUAACAUCUCCAAGUCUAAAUCUGUGUCCUGAGUAGAAAAUGGGUUCUUUGCUUCUGUGUCUUCCAACAGAGGAUUGAGCAUCA
B8: 154942573_154942693_590_CDS_ENSG00000160691_ENST00000448116|human|control|control (ssRNA)
RNA: GGGAGUUCUACAGUCCGACGAUCCUUAUUGACAAAGCUCCCGUGGCGGGUCCACUCCUCGCCCCCAAGCUGGCCCCCUUCCACCCGAGUCCUGCGCCCGCCGCCUCCACUCAGCUUGUUCAUGUCCUGGAGGAGGGGUAGGGGCAACAGAGGAUUGAGCAUCA
B9: chr7:99056824:99056825:-_ENSG00000241468_ENST00000394186|hu_hu|FALSE|FALSE (ssRNA)
RNA: GGGAGUUCUACAGUCCGACGAUCUCAGUGGUAUUUGCGGAGCCGCUCGUGCUUGAGAUGCUUGUAGGAAAAGGAGUAGCUAAAGAGCACGUAGCAUGCCAGCACCAUGGUAAUCCCCGAGAUGCUCCCCUUCUUCACAUUGAUCAACAGAGGAUUGAGCAUCA
B10: chr5:50689391:50689392:+_ENSG00000016082_ENST00000230658|hu_mus|FALSE|FALSE (ssRNA)
RNA: GGGAGUUCUACAGUCCGACGAUCAAUAGGACUGGCUACCAUGCUGUUGGGUGUAUCUGGGAGCUGCGAGGACAUCGAUGCUACUUCACUGCCAGUAGAAUUAGAGCCUGGUCCUCCUUCUGAAAAAUUGACCAGUUGCUGAAACAACAGAGGAUUGAGCAUCA
B11: chr1:74670475:74670476:+_ENSG00000254685_ENST00000370898|hu_mus|FALSE|FALSE (ssRNA)
RNA: GGGAGUUCUACAGUCCGACGAUCGUUCUGUUGACCAAAGCUUCGUUGUCUAUGCACAGCAUUAAAGCGGUGCAUGUUUUCAAUGGUGGGCUUGUGGAGGAAUUGGUAGCAUUGCCUGUACUCAAGGUCACCAUGUUGUAAGGACAACAGAGGAUUGAGCAUCA
B12: chr21:34924380:34924381:+_ENSG00000159140_ENST00000381679|hu_hu|motif|central (ssRNA)
RNA: GGGAGUUCUACAGUCCGACGAUCUCUAGGUGACAUCCUAUAGGGAUCAGGAGUUAGUCUGUAGGGAUCAUGGCCGGAUCGGUAAGGGUCUUGUCCUAACCUGUAAGCAUCAUGACCUAAUCUAUAGGGGUCAUGGCCCAACCUCAACAGAGGAUUGAGCAUCA
B13: chr16:4561903:4561904:-_ENSG00000089486_ENST00000567695|hu_mus|FALSE|FALSE (ssRNA)
RNA: GGGAGUUCUACAGUCCGACGAUCUCUGCACACUGACUGACUCAAAGAAGCUAGGUAAGAACAGGGGCAAGUUCUUCUCGGUUACCAGAGCUUUAAAUAGCCCAGGAUCCUCUUUGCUUCAUACCAGGCAGCUCUUGAGUGUUUCAACAGAGGAUUGAGCAUCA
B14: 99631505_99631625_1671_CDS_ENSG00000106261_ENST00000324306|human|control|control (ssRNA)
RNA: GGGAGUUCUACAGUCCGACGAUCGUUGAAAGCUUUUCCACAUUCACUACAUUCAUAGGGUUUCUCCCCCGUGUGAAUUCUCUGAUGCUUGGUGAGGUCCGAGCUCUGGCUGAAGGCCUUCCCGCACUCAUUACAUUCAUAAGGCAACAGAGGAUUGAGCAUCA
B15: 33731719_33735661_2417_CDS_ENSMUSG00000075254_ENSMUST00000152782|mouse|control|control (ssRNA)
RNA: GGGAGUUCUACAGUCCGACGAUCCUUCUUUAACUUAAACUCGGUCACAAAGGUUCUAACCAGAUUGCAUAUUCCUUUCUCCAACUGAUACCCGACUGGGCAUCUGCAGGUGAACGAUCCCUGAGUAUUGUUGCACGUGGCUAGCAACAGAGGAUUGAGCAUCA
B16: chr6:33248723:33248724:-_ENSG00000227057_ENST00000374617|hu_hu|FALSE|FALSE (ssRNA)
RNA: GGGAGUUCUACAGUCCGACGAUCUGCUCCAUGGGGCAGGGUCCGAGUGCUCAGAGGCUGGUACGUCCCUCGCAAGUCAAAGAUCUUCAGCUGGUGGUCUAGGCCAGAGGUGGCCAUGUACGUGCCUGUAGAAUCUACUGCCACCAACAGAGGAUUGAGCAUCA
B17: chr5:140076784:140076785:+_ENSG00000112855_ENST00000230771|hu_mus|FALSE|FALSE (ssRNA)
RNA: GGGAGUUCUACAGUCCGACGAUCUCCAGCCUGAGCUGGAGACUCUAGCAGUACUGCUUCAUAAAUCACUCCAGUAUAAUAGUCCAGGCCCCGGGCCAGACUCAGAUCAAGGGAGAUCUUAUCAGCAAUUCCAAAUAACCUCAGCAACAGAGGAUUGAGCAUCA
B18: chr8:104447970:104447971:+_ENSG00000164934_ENST00000297579|hu_hu|hu_hu_hu_mus_False|48_78 (ssRNA)
RNA: GGGAGUUCUACAGUCCGACGAUCAUACACUUCCCUGCUUCGGCUCUUGUCCACAGGAAAGAUUCGAAUAGACUUAUCAAAGCUGGCAGACACAAACUCCUUCCCAGUGGGAGAGUAGUCCACAUCAAGUACUGCAGACACGUGCAACAGAGGAUUGAGCAUCA
B19: chr15:27661301:27661302:-_ENSMUSG00000022263_ENSMUST00000090247|mus_mus|FALSE|FALSE (ssRNA)
RNA: GGGAGUUCUACAGUCCGACGAUCCCCACCCCCAACACACACAGAACCAUAAAGCUCACUUGCGAAGUAUGUGCUUUUUCUAUAUAUUUAUUACAUGUAUAACAGAAGUCUUCAUAAAUAGUUGCAGAAAAUGUUAAAGCCACACAACAGAGGAUUGAGCAUCA
B20: 57920089_57920386_1754_CDS_ENSG00000166987_ENST00000355673|human|control|control (ssRNA)
RNA: GGGAGUUCUACAGUCCGACGAUCUACUGGGGCUUUGGAGGCAGCUGGUGGGGCAGGGGCACCUGGCACACUGCUGAGGCUGCCACUGGUGGUCCCAGGCAGGGAGGGCUGGAUGGGGUGCCUGGGCUGGGGAGGGCUCCCUGACAACAGAGGAUUGAGCAUCA
B21: chr4:95690885:95690886:+_ENSMUSG00000028572_ENSMUST00000156910|mus_mus|mus_mus_mus_hu_False|8_88 (ssRNA)
RNA: GGGAGUUCUACAGUCCGACGAUCUUUAGAAAAUGUUAAAUACCAUGAGCAUGCUAAUUCAAAGGCUUAUUUUAUUUUACCAGAAGUCACAGGCAAGCAGACACUACAAGAAUAUAUGAAAAUGAAACAACAGUGUAUAACUGUCAACAGAGGAUUGAGCAUCA
B22: chr2:172291668:172291669:+_ENSG00000115827_ENST00000375255|hu_mus|FALSE|FALSE (ssRNA)
RNA: GGGAGUUCUACAGUCCGACGAUCAACACUGCUGACACAGCACCGGUAAUUGUCAAAAUAUAUUCUUCCUCUCUCAUAGGCUAUAGGUGACUUGGAAUGAGUUGUCCAAACAUUCUUAAAUUUAGUACUCUCCUGGCACACCAGCAACAGAGGAUUGAGCAUCA

Molecular target: T1, UNK ZnF1-3
Experiment: nsRBNS (natural sequence RNA bind-n-seq); RBNS binding buffer (assumed for nsRBNS): 25 mM Tris pH 7.5, 150 mM KCl, 3 mM MgCl2, 0.01% Triton X-100, 500 ug/ml BSA, 20 U/ml SUPERase-In, 4 C; UNK is unkempt and MSI1 is Musashi-1; names of the RNAs are library labels; protein concentration not given here; high values mean tight binding

Binder | binding signal [enrichment R]
B1 | 0.931
B2 | 0.864
B3 | 1.65
B4 | 1.01
B5 | 1.34
B6 | 1.53
B7 | 1.31
B8 | 1.06
B9 | 1
B10 | 1.48
B11 | 0.933
B12 | 0.614
B13 | 1.17
B14 | 0.485
B15 | 0.715
B16 | 1.32
B17 | 0.71
B18 | 0.993
B19 | 2.22
B20 | 0.793
B21 | 2.2
B22 | 1.42
